Source: PubChem BioAssay AID1379 (National Center for Advancing Translational Sciences (NCATS), 2008)
The whole screen tested about 200,000 compounds, of which about 560 (0.28%) were called active. This list was built around the results that the source calls inconclusive (neither active nor inactive); the mix of calls is not that of the screen. Calls come from the whole dose curve; as a rule, active = well fitted inhibition curve with a large enough effect; inconclusive = small, poorly fitted or top-dose-only effect; inactive = flat fitted curve, though single readings scatter. Potencies of inconclusive entries are left out as doubtful fits.

target: Luciferin 4-monooxygenase (Photuris pensylvanica) (UniProt Q27757); test: Counterscreen for Luciferase (Kinase-Glo TM) Inhibition; settings: ATP luminescence, 8 min; series mostly up to 38.3 µM; activity change, negative = inhibition: at the top concentration; note: nearly all actives have a fitted effect of over 60% in size
Procedure, shortened: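 Light output from Kinase-Glo luciferase with luciferin and 10 uM ATP in 50 mM imidazole pH 7.2, KCl, MgCl2, Tween 20, BSA; compound pin-delivered, 8-min ambient incubation, then luminescence read.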
% is set by controls: 0 for no effect and ±100 for the full control effect; potency is the fitted concentration of half-maximal effect; tags give direction and shape of the fitted curve.

SMILES | Potency | activity change, negative = inhibition
COc1ccc(-c2cn3ccccc3n2)cc1[N+](=O)[O-] | inconclusive [inhibitor, single point] | 
COCCOCCn1c(/C=C/c2ccccc2)nc2ccccc21 | inconclusive [inhibitor, single point] | 
COCCOC(=O)CSc1ncccc1-c1nc2cc(C)c(C)cc2[nH]1 | active: 12.6 µM | 
O=C(NCc1ccccn1)c1cccc(NS(=O)(=O)c2ccccc2F)c1 |  | inactive: -0.183%
Cc1ccc2c(c1)N=C(c1ccc(F)cc1)CO2 | inconclusive [inhibitor, partial curve] | 
N/C(=N\OC(=O)c1ccc(Cl)cc1)c1nonc1N | inconclusive [inhibitor, partial curve] | 
Cc1cc(C(=O)Nc2ccccc2)oc1C | active: 12.6 µM | 
O=C(Nc1ccc2c(c1)OCO2)c1ccc(Cl)s1 | inconclusive [inhibitor, single point] | 
COc1ccc(C2C(=O)c3ccccc3C2=O)cc1 | inconclusive [inhibitor, single point] | 
Cc1cccc(NC(=O)/C=C/c2cccs2)n1 | active: 12.6 µM | 
O=C(Nc1cccnc1)c1cc(-c2ccc3c(c2)OCO3)on1 | inconclusive [inhibitor, partial curve] | 
OC1c2ccccc2-c2nc3ccccc3cc21 (configuration not stated) | inconclusive [inhibitor, single point] | 
Cc1nonc1C(=O)N/N=C/c1ccc(O)cc1 | active: 5.01 µM | 
CC1(C)CC(=O)C=C(NNC(=O)c2ccccc2O)C1 | inconclusive [inhibitor, single point] | 
O=C(c1cccs1)N1CCn2c1nc1ccccc12 | inconclusive [inhibitor, partial curve] | 
COc1cccc(C(=O)Nc2cccc(C(C)=O)c2)c1 | inconclusive [inhibitor, single point] | 
COc1ccc(-c2ccc3ccccc3n2)cc1 | inconclusive [inhibitor, single point] | 
c1ccc(-c2ccc(-c3ccccn3)nn2)nc1 | active: 10 µM | 
COCCn1c(=O)c(-c2ccc(OC)cc2)nc2cnc(OC)nc21 |  | inactive: -3.24%
Cc1ccc(-c2nn3c(C)nnc3s2)cc1NC(=O)C(C)C |  | inactive: -4.89%
Cc1ccc2nc(-c3cccc(NC(=O)c4ccco4)c3)[nH]c2c1 | inconclusive [inhibitor, partial curve] | 
CN(C)c1cccc2c(C=C(C#N)C#N)ccc(N(C)C)c12 | inconclusive [inhibitor, partial curve] | 
